Values joined by “and” are separate entries in the source; they are usually repeats but may differ in a detail not shown here. Identical values can stand only once. “Also recorded” adds a separate entry of the source. Part of at least one peptide drawing is inferred or uncertain, most often the ends. Some compounds share one wording; it may come from a single statement. Ends that are not written are not given here. Peptide text beside a SMILES is read from it.
Assays:
Type in all cases: physicochemical
[1] = Ex situ AFM imaging of peptide fibril nanostructure; conditions: for fibril length: AFM of ThT responsive materials; for fibril morphology: AFM
[2] = ThT aggregation assay, free peptide BCP; conditions: for Tlag (lag time, aggregation onset), spread: sigmoidal least squares fit of ThT curves; for ThT activity / fibril formation of free peptide / aggregation onset / lag phase, unseeded reaction: up to 300 h; for ThT activity / fibril formation of free peptide: Tris-EDTA and ASW; for aggregation onset / lag phase, unseeded reaction: free peptide alone
[3] = Cross-seeding ThT aggregation assay (preformed seed fibrils with free peptide BCP); conditions: for ability of seed fibrils to activate dormant BCPs (label = seed): activation defined as ThT fluorescence ≥100 a.u., Tris-EDTA and ASW
[4] = Transmission FTIR of dried peptide fibrils on CaF2; conditions: normalized to 1
[5] = buffer not given, by context ASW

Molecule | fibril length [1] | Tlag median ([2]; Tris-EDTA) [h] | Tlag (lag time, aggregation onset), spread ([2]; Tris-EDTA) [h] | Tlag median [2, 5] [h] | Tlag spread [2, 5] [h] | ThT activity / fibril formation of free peptide [2] | ability of seed fibrils to activate dormant BCPs (label = seed) [3] | fibril morphology [1] | aggregation onset / lag phase, unseeded reaction [2] | also measured
CC[C@H](C)[C@H](NC(=O)[C@H](C)NC(=O)[C@H](CC(C)C)NC(=O)[C@H](CC(=O)O)NC(=O)[C@H](CC(C)C)NC(=O)[C@H](CO)NC(=O)CNC(=O)[C@H](C)NC(=O)CNC(=O)[C@H](CCC(N)=O)NC(=O)[C@@H](NC(=O)[C@H](C)NC(=O)CNC(=O)[C@@H](NC(=O)[C@H](CO)NC(=O)[C@H](CO)NC(=O)[C@@H](NC(=O)[C@H](C)NC(=O)[C@H](C)NC(=O)CNC(=O)CNC(=O)[C@H](CCCNC(=N)N)NC(=O)[C@@H](NC(=O)[C@H](Cc1ccc(O)cc1)NC(=O)CNC(=O)[C@@H](NC(=O)[C@@H](N)CCC(N)=O)[C@@H](C)O)[C@@H](C)O)C(C)C)[C@@H](C)O)[C@@H](C)O)C(=O)N[C@@H](CC(=O)O)C(=O)NCC(=O)N1CCC[C@H]1C(=O)NCC(=O)NCC(=O)N[C@@H](Cc1ccccc1)C(=O)N[C@@H](CCCCN)C(=O)N[C@@H](C)C(=O)N[C@@H](CCCNC(=N)N)C(=O)N[C@@H](CO)C(=O)N[C@@H](CCCCN)C(=O)O [BCP1C] (H-QTGYTRGGAAVSSTGATQGAGSLDLAIDGPGGFKARSK-OH) | ≥ 5 microns | 120 | 64 to 208 | 169 | 101 to 180 | positive ThT response | only activate peptides BCP1 and 4 in ASW; also recorded: do not | – | – | delayed aggregation time ([2]; buffer not specified): ≥ 100 h; maximum peak absorbance at 1698 cm^−1 as a fraction of the peak at ca. 1625 cm^−1 [4]: 0.9-1.0
CC(C)[C@H](NC(=O)[C@H](C)NC(=O)[C@H](C)NC(=O)CNC(=O)CNC(=O)[C@H](CCCNC(=N)N)NC(=O)[C@@H](NC(=O)[C@H](Cc1ccc(O)cc1)NC(=O)CNC(=O)[C@@H](NC(=O)[C@@H](N)CCC(N)=O)[C@@H](C)O)[C@@H](C)O)C(=O)N[C@@H](CO)C(=O)N[C@@H](CO)C(=O)N[C@H](C(=O)NCC(=O)N[C@@H](C)C(=O)N[C@H](C(=O)N[C@@H](CCC(N)=O)C(=O)NCC(=O)N[C@@H](C)C(=O)NCC(=O)N[C@@H](CO)C(=O)O)[C@@H](C)O)[C@@H](C)O [BCP1] (H-QTGYTRGGAAVSSTGATQGAGS-OH) | – | – | – | – | – | no activity; also recorded: respond to ThT; also recorded: no ability to assemble on its own | – | short and bundled morphology | no measured onset | aggregation onset in the presence of preformed BCP1C seed fibrils ([3]; BCP1C seeds, ASW): 30 h
CC[C@H](C)[C@H](NC(=O)[C@H](CO)NC(=O)[C@@H](NC(=O)CNC(=O)[C@H](CO)NC(=O)CNC(=O)[C@H](CO)NC(=O)[C@@H](NC(=O)CNC(=O)[C@H](CO)NC(=O)[C@H](CC(N)=O)NC(=O)CNC(=O)[C@@H](NC(=O)[C@H](C)N)C(C)C)C(C)C)C(C)C)C(=O)NCC(=O)N[C@@H](CC(=O)O)C(=O)N[C@@H](CO)C(=O)NCC(=O)N[C@@H](Cc1ccccc1)C(=O)N[C@@H](CCCNC(=N)N)C(=O)N[C@@H](CCC(N)=O)C(=O)N[C@@H](CCCCN)C(=O)N[C@H](C(=O)N[C@@H](CCC(N)=O)C(=O)N[C@H](C(=O)N[C@@H](CC(N)=O)C(=O)N[C@@H](CO)C(=O)N[C@@H](CCC(=O)O)C(=O)N[C@@H](C)C(=O)NCC(=O)N[C@@H](CO)C(=O)N[C@@H](CCCCN)C(=O)NCC(=O)N[C@H](C(=O)N[C@@H](CCCCN)C(=O)N[C@@H](CCCNC(=N)N)C(=O)N[C@@H](C)C(=O)O)[C@@H](C)O)[C@@H](C)O)[C@@H](C)O [BCP2C] (H-AVGNSGVSGSGVSIGDSGFRQKTQTNSEAGSKGTKRA-OH) | ≥ 5 microns | 6 | 2 to 16 | 22 | 2 to 102 | positive ThT response | higher ThT activity as well as more rapid polymerization of dormant BCPs; also recorded: activates most dormant peptides; also recorded: ability to activate most dormant peptides | nanofibers with the length and morphology of native glue fibers; also recorded: matted discrete structure; also recorded: discrete meshed architecture | – | aggregation onset time, Tlag values within ([2]; ASW): ≤ 50 h; aggregation onset time, Tlag values within ([2]; Tris-EDTA): ≤ 12 h; maximum peak absorbance at 1698 cm^−1 as a fraction of the peak at ca. 1625 cm^−1 [4]: 0.9-1.0
CC[C@H](C)[C@H](NC(=O)[C@H](CO)NC(=O)[C@@H](NC(=O)CNC(=O)[C@H](CO)NC(=O)CNC(=O)[C@H](CO)NC(=O)[C@@H](NC(=O)CNC(=O)[C@H](CO)NC(=O)[C@H](CC(N)=O)NC(=O)CNC(=O)[C@@H](NC(=O)[C@H](C)N)C(C)C)C(C)C)C(C)C)C(=O)NCC(=O)N[C@@H](CC(=O)O)C(=O)N[C@@H](CO)C(=O)NCC(=O)N[C@@H](Cc1ccccc1)C(=O)N[C@@H](CCCNC(=N)N)C(=O)N[C@@H](CCC(N)=O)C(=O)N[C@@H](CCCCN)C(=O)N[C@H](C(=O)N[C@@H](CCC(N)=O)C(=O)N[C@H](C(=O)O)[C@@H](C)O)[C@@H](C)O [BCP2] (H-AVGNSGVSGSGVSIGDSGFRQKTQT-OH) | 1-2 microns | 26 | 4 to 53 | 30 | 9 to 73 | respond to ThT; also recorded: positive ThT response | lack an ability to stimulate elongation and activation of dormant BCPs; also recorded: do not | short and bundled morphology; also recorded: clumps as aggregates from shorter subunit fibrils; also recorded: short assemblies clump to form larger particles | 25 to 30 h and 30 h | aggregation onset time, Tlag values within ([2]; ASW): ≤ 50 h; aggregation onset time, Tlag values within ([2]; Tris-EDTA): ≤ 12 h; aggregation onset / lag phase in the presence of preformed BCP2C seed fibrils ([3]; BCP2C seeds, Tris-EDTA): < 2 h
CC[C@H](C)[C@H](NC(=O)CNC(=O)[C@H](CCCCN)NC(=O)CNC(=O)[C@H](CCC(N)=O)NC(=O)[C@@H](NC(=O)CNC(=O)[C@@H](N)[C@@H](C)O)[C@@H](C)O)C(=O)N[C@H](C(=O)N[C@@H](CO)C(=O)NCC(=O)N[C@@H](CCC(=O)O)C(=O)N[C@@H](C)C(=O)N[C@H](C(=O)N[C@@H](C)C(=O)N[C@@H](CC(N)=O)C(=O)N[C@@H](CCC(N)=O)C(=O)N[C@@H](CCCCN)C(=O)N[C@@H](C)C(=O)NCC(=O)N[C@@H](C)C(=O)N[C@@H](CCC(=O)O)C(=O)NCC(=O)NCC(=O)O)C(C)C)[C@@H](C)O [BCP3] (H-TGTQGKGITSGEAVANQKAGAEGG-OH) | – | – | – | – | – | no activity | – | – | – | –
CC[C@H](C)[C@H](NC(=O)[C@H](CCC(=O)O)NC(=O)[C@@H](NC(=O)CNC(=O)[C@@H](NC(=O)[C@H](CCC(=O)O)NC(=O)[C@H](CC(N)=O)NC(=O)[C@H](CO)NC(=O)[C@@H](NC(=O)[C@@H](NC(=O)[C@H](Cc1ccccc1)NC(=O)[C@H](CCCNC(=N)N)NC(=O)CNC(=O)[C@@H]1CCCN1C(=O)CNC(=O)[C@H](CO)NC(=O)[C@H](CO)NC(=O)[C@H](CO)NC(=O)[C@H](C)NC(=O)[C@H](CCCCN)NC(=O)[C@H](Cc1c[nH]cn1)NC(=O)CNC(=O)[C@H](CO)NC(=O)[C@H](CO)NC(=O)[C@H](CO)NC(=O)[C@@H](NC(=O)CN)[C@@H](C)O)[C@@H](C)CC)[C@@H](C)O)C(C)C)[C@@H](C)O)C(=O)N[C@@H](CCCCN)C(=O)N[C@@H](CC(C)C)C(=O)N[C@H](C(=O)N[C@H](C(=O)N1CCC[C@H]1C(=O)N[C@@H](CCC(=O)O)C(=O)N[C@@H](CC(C)C)C(=O)N[C@@H](CC(=O)O)C(=O)O)[C@@H](C)O)[C@@H](C)O [BCP4C] (H-GTSSSGHKASSSGPGRFITSNEVGTEIKLTTPELD-OH) | – | – | – | – | – | no activity | – | – | – | –
CC[C@H](C)[C@H](NC(=O)[C@H](Cc1ccccc1)NC(=O)[C@H](CCCNC(=N)N)NC(=O)CNC(=O)[C@@H]1CCCN1C(=O)CNC(=O)[C@H](CO)NC(=O)[C@H](CO)NC(=O)[C@H](CO)NC(=O)[C@H](C)NC(=O)[C@H](CCCCN)NC(=O)[C@H](Cc1c[nH]cn1)NC(=O)CNC(=O)[C@H](CO)NC(=O)[C@H](CO)NC(=O)[C@H](CO)NC(=O)[C@@H](NC(=O)CN)[C@@H](C)O)C(=O)N[C@H](C(=O)N[C@@H](CO)C(=O)N[C@@H](CC(N)=O)C(=O)O)[C@@H](C)O [BCP4] (H-GTSSSGHKASSSGPGRFITSN-OH) | – | – | – | – | – | no activity | – | – | – | –
CC(C)[C@H](NC(=O)[C@H](C)NC(=O)[C@H](C)NC(=O)CNC(=O)CNC(=O)[C@H](CCCNC(=N)N)NC(=O)[C@@H](NC(=O)[C@H](Cc1ccc(O)cc1)NC(=O)CNC(=O)[C@@H](NC(=O)[C@@H](N)CCC(N)=O)[C@@H](C)O)[C@@H](C)O)C(=O)N[C@@H](CO)C(=O)N[C@@H](CO)C(=O)N[C@H](C(=O)NCC(=O)N[C@@H](C)C(=O)N[C@H](C(=O)N[C@@H](CCC(N)=O)C(=O)N[C@@H](CS)C(=O)N[C@@H](C)C(=O)NCC(=O)N[C@@H](CO)C(=O)O)[C@@H](C)O)[C@@H](C)O [mutBCP1] (H-QTGYTRGGAAVSSTGATQCAGS-OH) | 1-2 microns | – | – | – | – | classical aggregation, lag and fiber growth phases | lack an ability to stimulate elongation and activation of dormant BCPs; also recorded: little cross-seeding activity | short fibrils that aggregate | – | –
TGTQGKGITSGEAVANQKAGAEGGAQRVEAVKYVESDGKNLYKVEKVD [BCP3C] | – | – | – | – | – | no activity | – | – | no measured onset | –

Source: patent US11827674B2, “Wet adhesive peptides” (US Department of the Navy, priority 2017, dated 2023)
